According to PMC8096265, “A functional LSD1 coregulator screen reveals a novel transcriptional regulatory cascade connecting R-loop homeostasis with epigenetic regulation” (Nucleic Acids Research, 2021):

Key:
[1] = biological target: DDX19A; assay: Equilibrium peptide binding, fluorescence anisotropy; conditions: recombinant DDX19A titrated onto 50 nM FITC-labeled H3.1 peptide (residues 16–34), 23°C, ex 495 nm / em 520 nm, 20 mM HEPES pH 7.5, 100 mM KCl, 0.1 mM DTT, 10% glycerol; at least 3 technical replicates; read-out: dissociation constant (KD)
Protocol: Determination of KD of DDX19A and H3K27 was conducted using H3.1 peptide labeled with FITC. The H3.1 peptide comprising residues 16–34 of the H3.1 tail was unmodified or trimethylated at K27. Binding was analysed using a Jasco FP-8300 spectrofluorometer with an automatic polarizer (FDP-837). Acquisitions were performed at 23°C, with excitation at 495.0 nm and emission measured at 520 nm. Slit width was set to 5 nm. 50 nM of peptide were dissolved in 0.5 ml of anisotropy buffer (20 mM HEPES pH 7.5, 100 mM KCl, 0.1 mM DTT, 10% v/v glycerol). DDX19A diluted in dialysis buffer (20 mM HEPES pH 7.5, 200 mM KCl, 1 mM Na2-EDTA, 60% v/v glycerol, 0.2 mM DTT) was added stepwise. Titrations were conducted in at least 3 technical replicates. Control experiments were conducted with dialysis buffer without protein and the fluorescence anisotropy values were corrected accordingly. For determination of the KD-values for H3.1, the data were fitted to a simple binding equilibrium: […]

[2] = tested on: R-loops from NIH/3T3 cell lysate; assay: S9.6 antibody IP, co-precipitation of LSD1 and DDX19A; format: cell-based, murine; conditions: RNAseH1 treatment before IP with S9.6 antibody, Western blot
Protocol: 100 μl Dynabeads® Protein G were pre-blocked with 0.5% BSA/PBS for 2 h at 4°C. 10 × 10^6 non-crosslinked NIH/3T3 cells were harvested, washed once in 1× PBS and lysed in 1 ml Cell Lysis Buffer (85 mM KCl, 5 mM HEPES pH 8, 0.5% NP-40, cOmplete™ EDTA-free PIC) for 15 min on ice. Nuclei were collected by spinning 1 min at 15 000 × g, 4°C. The pellet was resuspended in 750 μl RSB buffer (10 mM Tris–HCl pH 7.5, 200 mM NaCl, 2.5 mM MgCl2, cOmplete™ EDTA-free PIC) supplemented with 0.2% sodium-deoxycholate, 0.1% SDS, 0.05% sodium-lauroyl-sarcosinate and 0.5% Triton X-100. Cells were sonicated for 4 min in an EpiShear Probe Sonicator (20 s pulse, 30 s pause, 40%). After taking 5% as input, samples were transferred to a 15 ml falcon tube and diluted 1:4 by addition of 2.3 ml RSB with 0.5% Triton X-100 (RSB+T). The samples were subjected to pre-clearing with 5 μg mouse IgG and 35 μl Dynabeads® Protein G for 1 h at 4°C. Magnetic beads were locked and the supernatant was split into three Eppendorf tubes. For the S9.6 antibody-specificity control, 40 U of RNAse H (NEB) were added to one of the tubes and all samples were incubated for 10 min at 37°C before adding the IP antibodies. The samples were subjected to IP with 4 μg of either the S9.6 antibody or mouse IgG and 32 μl pre-blocked beads per sample. 10 ng RNase A was added to each tube before rotating at 4°C for 2.5 h. […]

[3] = tested on: RNA:DNA hybrid structures (R-loops) in NIH/3T3 cells; assay: DRIP-qPCR with S9.6 antibody, R-loops; format: cell-based, murine; conditions: nucleic acids digested with RNAse H before S9.6 IP, control
Protocol: Based on a detailed assessment of various DRIP protocols ([53]), DRIP was performed as described, with slight adaptations to workflow #19 ([53]). In brief, NIH/3T3 cells were harvested, washed once with 1X PBS and cross-linked in 1% formaldehyde/PBS for 10 min at room temperature. Crosslinking was quenched with 500 mM glycine for 5 min at room temperature. Cells were lysed in 300 μl of ChIP lysis buffer (50mM HEPES–KOH at pH 7.5, 140 mM NaCl, 1 mM EDTA at pH 8, 1% Triton X-100, 0.1% sodium-deoxycholate, 1% SDS) per 2 million cells for 30 min on ice and homogenized with a syringe every 10 min. Chromatin was fragmented by sonication using an EpiShear Probe Sonicator (Active Motif) for 2 × 12 cycles (20 s pulse, 30 s pause, 40% amplitude). The fragmented chromatin was supplemented with 300 mM NaCl and 50 μg of RNase A in 450 μl TE buffer (10 mM Tris–HCl pH 8, 10 mM EDTA pH 8) and incubated at 37°C for 1 h. The cross-linked D. melanogaster mononucleosomes were treated in parallel to obtain DNA for spike-in controls. To remove proteins and reverse the cross-links, the samples were treated with 15 μl of Proteinase K (20 mg/ml; Thermo Fisher Scientific) at 65°C for 16 h. […] The pellet was resuspended in 5 mM Tris–HCl, pH 8.5 and concentration was determined by NanoDrop. […]

[4] = tested on: R-loops in NIH/3T3 cells; assay: S9.6 immunofluorescence microscopy of R-loops; format: cell-based, murine; conditions: transient expression of RNAseH1, transfection 24 h before fixation
Protocol: NIH/3T3 cells were cultivated until 70–90% confluency on microscopy coverslips. Cells were washed three times for 5 min with 2 ml PBS^Ca2+ Mg2+ (Sigma-Aldrich). Cells were fixed for 10 min at room temperature in 4% paraformaldehyde. Cells were washed as described and permeabilized with 0.2% ice-cold TritonX-100 in PBS for 5 min. Cells were blocked in 2 ml 5% non-fat dried milk in PBS^Ca2+ Mg2+ for 1h at room temperature. Primary antibody binding was performed overnight at 4°C with a concentration of 4 μg/ml antibody in PBS^Ca2+ Mg2+/5% non-fat dried milk powder. Secondary antibody binding was performed at room temperature for 2 h with a concentration of 0.5 μg/ml antibody in PBS^Ca2+ Mg2+/5% milk powder. Cells were stained with 1μg/ml DAPI in PBS^Ca2+ Mg2+ for 3 min, washed again with PBS and mounted on microscopy slides using Mowiol® 4–88 (Sigma-Aldrich).
For the quantification of the S9.6 staining, samples were analysed on a Zeiss Axio Observer.Z1 microscope equipped with a Plan-Apochromat 63×/1.40 Oil DIC M27 objective and an AxioCam MRm camera. […] Quantitative image analysis was done with CellProfiler™ version 2.2 ([56]). […]

| Kd [1] [nM] | Substance | co-precipitation of LSD1 or DDX19A with R-loops [2] | DRIP signal after RNAseH1 incubation [3] | R-loop signal (S9.6 immunostaining) [4] |
| --- | --- | --- | --- | --- |
| 82 | H3K27me3 peptide: FITC-labeled H3.1 peptide comprising residues 16–34 of the H3.1 tail, trimethylated at K27 | – | – | – |
| – | RNAseH1: Ribonuclease H1, known to specifically degrade the RNA of RNA:DNA hybrid structures | attenuated | reduced the DRIP signal | strong reduction of the R-loop signal |
